This note sets out measurements from PubChem BioAssay (NCI).

For the test, the system named is SF-539 CNS. The experiment in a line: NCI-60 one-dose screen, 48 h (100 = growth as untreated, 0 = no growth, -100 = all killed). The note with it: 0.25 µM.

Structures are written as SMILES. The source holds several records for some structures; these can differ, active in one and inactive in another.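 Single-dose data. Exposure time 48 hours. Values below 10 considered active.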 Certain results were filed several times, with different values. This is not the full list of results. There may be further records. This drug was run again and again over the years, at the concentration stated with the values; each value is one run. Marks such as (2×) count equal records among those shown.

For the compound `COc1cccc2c1C(=O)c1c(O)c3c(c(O)c1C2=O)C[C@@](O)(C(=O)CO)C[C@@H]3OC1CC(N)C(O)C(C)O1` (stereo not given in full), the growth entry reads like this: (runs of 2006) “active: -15.8%, -0.894%”; (runs of 2007) “inactive: 12, 32.8, 12.1, 10.3, 18.6, 17, 13.9, 20, 18.3, 16.9, 31.2, 22.2, 17.8 (2×), 26.9, 34.4, 25.3, 29.1, 24.7, 12.4, 31.7, 53.9, 56.5, 25 (2×), 38.2, 30.2, 34, 28.2, 35, 27.8, 54.5, 50.7, 28.3, 15.1, 15.6, 23.4, 24.2% and active: 7.85, 3.94, 4.7, 6.14%”; (runs of 2008) “inactive: 32.6 (2×), 36.3, 42.1, 36.6, 25.5, 35.4, 28.5, 32.4, 33.4, 41.1 (2×), 45.8, 48.1, 21.5 (2×), 16.6, 15.8 (2×), 23.3, 22.4 (2×), 14.8, 32, 13.7, 89.2, 21.8, 10, 12, 14.7, 22, 41.7, 39.4, 24.8, 30.8, 30.9, 31.3, 23.7, 18.8, 24.5% and active: 3.44, 7.29, 7.12, 7.46, -10.9, 9.14, -20.5, 9.73, -8.81, -6.21, 9.26, -1.79%”; (runs of 2009) “inactive: 24.2, 20.1, 26.4, 24.4, 21.9, 24.8, 16.4, 22.2, 16.7, 12.8, 21.2, 16.5 (2×), 18 (2×), 15.1, 11, 12.2, 20.9, 13.7, 11.6, 20, 14.8, 14.1, 10.6, 16.9, 15, 12.9, 31.1, 26.1, 30, 29.8, 22 (2×), 30.9, 17.4, 14.4, 23.2, 31.7, 42.9, 32.7, 34.6, 34.3, 36, 39.3, 39.4, 24.7 (2×), 13.8, 33.4, 29.5, 31.8, 46.8, 19.1, 19, 33.9, 23.8, 39.9, 33.1, 31.9, 17.8% and active: 6.52, 8.65, 9.36, 9.94, 9.8%”; (runs of 2010) “inactive: 23.6 (2×), 22.8, 19.5, 25.2, 27.6, 17.6, 37.1, 34.8, 31.4 (2×), 28.6, 29.2, 15.8, 25.7, 24.2, 17.4, 17.3, 25.8, 33.8, 23.5, 37.4, 10.3, 33.2, 42.9, 22.4, 27, 23.3, 24.3, 28.8, 26.2, 43.5, 23.2, 19.2 (3×), 22.2, 12.5, 16.6, 12.7, 31.2, 17, 15.2, 28.3 (2×), 23.1, 26.4, 24.8, 30.5% and active: 7.28%, 5.34%”; (runs of 2011) “inactive: 25 (2×), 22, 29.5 (2×), 24.3, 30.9, 12, 24.2 (3×), 25.5, 11.5, 32.6, 27.9, 26.1, 25.3 (2×), 29.7, 22.2 (2×), 27.1, 30.1, 21.5, 33.4 (2×), 20.5, 31, 32.3, 26.5, 37.4, 40.5, 39.2, 27.3, 15.6 (2×), 24.7 (2×), 21.4 (2×), 24.1, 14.1, 18.6 (2×), 21.7, 26.9, 18, 14.5, 18.8, 23.2, 19.6, 22.5, 27.6, 23.9, 31.2, 20.9% and active: 9.3%”. Besides, the growth result reads like this: (runs of 2012) “inactive: 23.8, 25.9, 26, 31.9, 23.6 (2×), 23.1, 31.4 (2×), 32, 42.8, 30.1, 25.2, 29.7, 38.4, 24.8, 34, 40.4, 41.4, 37.1, 33.8, 17.6, 29.2, 33.1, 32.2 (2×), 40.2, 27.9, 25.6, 26.3, 28.5, 24.2, 29.9, 18.1, 16.7, 28 (2×), 33.6, 18.3, 24.9, 27.3, 39.1, 24.7, 38.1, 31.1, 35.4, 40.5, 52.1, 40.6, 42.4, 36.9, 33.3, 27.6 (2×), 34.5, 45.6, 50.7, 49.8, 36.6, 34.2, 32.1, 43.5, 27.2, 10.9, 13.9, 20.3, 18.8, 29.6, 44.1, 21.6, 19%”; (runs of 2013) “active: 2.01, -1.49, 9.59, 9.81, 1.62, -4.84, 4.06, 6.83, 9.77% and inactive: 20.3, 23.2, 17.4, 28.1, 42.5, 28 (2×), 29.6, 29.9, 38.9, 25.7, 30.6, 46.9, 25.3, 32.3, 22.3 (2×), 24.2, 27.5, 39.5, 24.1, 24.7, 31.1, 29.2, 21.7, 31 (2×), 29.4, 30.4, 25.9, 27.1, 38.6, 35.6, 50.3, 38.1, 43.1, 36, 39.2, 35.8, 47.9, 19, 24.6 (2×), 27.7, 42.9, 25.5, 37.9, 53.2, 50, 44.5, 28.2, 36.8, 50.5, 33, 45.8, 37.3, 27.3, 23, 32.5, 12.1, 12.4, 14.7, 13.5, 20.5, 13.9, 10.2, 11.1%”; (runs of 2014) “inactive: 15.6 (2×), 18.1 (2×), 11.7 (3×), 21.1, 16.4, 22.5, 30.3, 26.2, 24 (3×), 30.6, 25.9 (2×), 28.3, 28.1, 35.2, 12.5, 14.4, 18, 12.9 (2×), 15.8, 11.1, 14, 16.7, 15.2 (2×), 12.2, 13.8, 11.4, 14.5, 11.6, 10.1 (2×), 17.7, 21.7, 23.3, 27.6, 14.7, 22.1, 14.6, 13.5, 27.4, 26.1, 22.2, 23.4, 18.2, 23.2, 27.9, 24.6, 31.3, 21.4, 37, 28, 17.6, 23.9% and active: 5.62, 5.04, 7.57, 9.23, 3.37, 8.44, -0.962, 1.65, 3.42, 3.5, 5.86, 8.19, 0.707, 8.72, 7.54, 8.54%”; (runs of 2015) “inactive: 22.8, 24.5 (2×), 23.9 (2×), 23.8 (3×), 31.6, 21.7 (2×), 13.1, 18.4, 29.2, 29, 23.2, 39.6, 22.5 (2×), 14.8, 10.9, 11.7, 16, 26.3, 30.4 (2×), 24.4, 27.3 (2×), 27, 24.6, 31.7, 23, 22.9, 42.2, 33.9, 35.8, 20.6, 23.4 (2×), 23.6 (2×), 26, 30, 28.1, 28.8 (2×), 33.8, 22, 18, 11, 15.8, 20.2, 19.2, 16.7 (3×), 21.5 (2×), 25.8, 47.7, 21.1 (2×), 37, 27.1, 41.9, 34.6, 24.9 (2×), 33.1, 33.4 (2×), 32.9, 26.6, 28.6, 27.9, 34, 31.8 (2×), 32.1, 30.8, 25.3, 27.5, 20.9, 32.6% and active: 9.17%”; (runs of 2016) “inactive: 27.8, 26, 34.6, 33.6 (2×), 38, 54.2, 24 (3×), 25.7 (2×), 36 (2×), 29.7, 30.7 (2×), 27 (2×), 40.2, 31.3, 38.8, 34, 16.1, 33.5, 33.7, 23.1 (2×), 25.3, 30.5, 21.6, 28.4, 21.7, 21.8, 20.5, 26.4, 23.9, 26.2, 33.1, 32.5, 22.8, 33.4, 43.4, 43, 32.6, 41.1 (2×), 37.8, 33.8, 35.8, 34.1, 33.2, 25.8 (3×), 27.1, 24.9, 30.8, 29.1, 29.3, 37.1 (2×), 29.4, 26.3, 38.6, 31.1, 30.4, 29.8, 29.6, 36.8, 35.6, 37.9, 43.8, 43.5, 46, 42, 37.3, 28.5, 29, 37.4, 29.2, 30.1, 26.1, 31.2, 24.6, 32.3, 40.1%”; (runs of 2017) “inactive: 26.2, 31 (2×), 24.9, 27.8, 26.1 (2×), 27.4, 12.2, 19.2, 25.5, 28.8, 24.1, 24.4, 20.9, 20.1 (2×), 28.2, 30.3, 22.8, 13.4, 17.2, 18.2 (2×), 15.8, 14.6, 18.8, 22.1, 25.7, 16.8, 20.5 (3×), 22.3 (3×), 23.8 (2×), 19.7, 22.5, 25.6, 29.2 (2×), 25, 26.4, 24.7, 31.1, 34.4, 21.3 (2×), 15.6, 22.2, 29.5, 29.8, 18.4, 19.5, 29.9, 23.9, 21.8, 27.3 (2×), 22.9 (2×), 23.4, 31.7, 14.5, 13.5, 21.7, 30.2, 24, 37, 44.2, 26.5, 21.6, 26%”. For the same compound, the growth result runs as follows: (runs of 2018) “inactive: 34.3, 38.2, 25, 23.5, 37, 37.8 (2×), 26.4 (2×), 34.1, 30.7, 28.1, 27.3 (2×), 33.6, 42.4, 31.6, 29.2, 32.6 (2×), 23.9, 28.3, 21.8 (2×), 29.5, 23, 25.6, 26.1, 22, 24.7, 26.9, 22.2, 14.4, 19.7, 25.9, 28.4, 28.9, 31.7 (2×), 32.3, 28.8, 24.1, 35.3, 38, 27, 24.3, 31.2, 30.1, 31.9, 26.6, 37.2, 47.3, 37.4, 12.3, 15.4%”; (runs of 2019) “inactive: 14, 25.2, 14.1, 16.2, 27.9, 23.8 (2×), 16.8, 20.5, 26.1 (2×), 24.5, 36.5 (2×), 29.1, 29.7, 15.9, 18.1, 19.5, 13.7, 20.6, 21.8, 20.4, 27.1, 33.8, 21.7, 25.5, 26.2 (2×), 26.4 (2×), 31.1, 25.6, 26.5, 28.9, 23, 29.9, 25.7, 23.1, 24.1, 22, 24.4, 33.1, 20.9, 14.7, 24.2, 22.7% and active: 4.85%”; (runs of 2020) “inactive: 12.1, 26.1, 25, 21.2, 22.7, 24.2, 25.3, 25.5, 23.6, 21.6, 19, 22.1, 23.9, 38.8, 29.4 (2×), 28, 38.5, 38, 32.2, 30.9, 28.6, 33.5%”.
